Measured values published in the RNAGym collection of RNA variant scans (doi:10.1093/nar/gkz1192).
The source gives no read counts; variants with many changes may rest on few reads.

B1: CPEB3 Ribozyme (parent)
chain: UAACAGGGGGCCACAGCAGAAGCGUUCACGUCGCAGCCCCUGUCAGAUUCUGGUGAAUCUGCGAAUUCUGCUGUAUAUCUC

Variants of: B1
Test: self-cleavage, relative activity (ratio to wild type); higher = more cleavage; in vitro, sequencing
Outline: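 CPEB3 self-cleaving ribozyme mutant libraries were made by rounds of error-prone PCR, barcoded, and transcribed in vitro with T7 RNA polymerase for 5 hours at 37°C. Cleavage occurred during transcription and a 15 min DNase I step before EDTA stop. RNAs were reverse transcribed with template switching and Illumina-sequenced, with DNA sequencing mapping barcodes to variants. Relative activity is the variant's cleaved/total read fraction divided by wild type's (minimum 5 reads), averaged across three batches.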

| Variant | self-cleavage |
| --- | --- |
| U48A C62U U74C | 0.22 |
| U48C U49C A56G | 0.38 |
| A47U U49A U58C U76C | 0.21 |
| U48C U54C U60A U80C | 0.38 |
| A47U U48C U69C U74C | 0.14 |
| U49C A64U A75U | 0.1 |
| U49C U51C A56U | 0.26 |
| U49A U60A U69C | 0.15 |
| U49C A57U G61A U76C U80C | 0.12 |
| A47G U49C U60C C62U U66C | 0.07 |
| U49C C50A A64U | 0.32 |
| A47G U51G A57C | 0.18 |
| U48C U54C A56C U67C U76A U78C | 0.06 |
| A47G U54C A56G | 0.43 |
| A47U U48C G55A A64U U69G U76C U80C | 0.05 |
| A47G U72A U80C | 1.23 |
| U49A A56G A57G C79U | 0.26 |
| A47G U54G U78C | 0.66 |
| A47G U60A A65G | 0.21 |
| U49A A64U U78C | 0.16 |
| A47G U72C A75G | 1.15 |

| Variant | self-cleavage |
| --- | --- |
| U49C U51C G63C | 0.52 |
| U48A C59U U78A U80C | 0.1 |
| A47G U54A U72A | 0.7 |
| A47G U48C A64U | 0.12 |
| A47G U48C U49C | 0.3 |
| U49A A65G U78C | 0 |
| U48C U58C U66C | 0.12 |
| A47U U54C U69A | 0.19 |
| U49C G53C U80A | 0.6 |
| U49C U51A U72C | 0.56 |
| U48C U54G A56G U74C | 0.41 |
| U49A A57G A64U U69G | 0.2 |
| U48C U67A U69A | 0.36 |
| U48C G53U U54A | 0.76 |
| U49C A56G G61A | 0.31 |
| A47G U67A U78C | 0.28 |
| U49C C62U U74C | 0.1 |
| A47G U69G U72A U78A | 0.38 |
| U49A C68G U72C | 0.29 |
| U49A U58C A65G | 0.24 |
| A47G U54C A65G U69C | 0.19 |

| Variant | self-cleavage |
| --- | --- |
| U48C A64U U67C C68U U69C | 0.18 |
| A47G U54A U69A A75G | 0.79 |
| U49A A57G A65G U78G | 0.13 |
| U49C A57G U69A | 0.32 |
| U49C G52A U66C | 0.12 |
| U48C U51A A56G | 0.22 |
| U49A G55C A77C | 0.69 |
| A47G U72A U78C U80C | 1.04 |
| U48A G52U A56G U60C A75G C81U | 0.36 |
| U48C U54C U58C A64U A65G | 0.42 |
| A47G U58C U80C | 1.18 |
| A47G U69A U74G | 0.61 |
| A47U A57U U60C U69A G73A | 0.17 |
| U49C U51C U72G A77U | 0.32 |
| U48C U49C A64G U78C | 0.09 |
| A47U U48C U72A | 0.1 |
| A47U U54A U69G U80C | 0.22 |
| A47U A56G U66C G70U | 0.21 |
| A47G U69C U76C | 0.78 |
| A47G G73A A77G | 1.31 |
| A47G U60A U67G | 0.09 |

| Variant | self-cleavage |
| --- | --- |
| A47G U60A U67C | 0.32 |
| A47G U60C U72C | 0.2 |
| A47G U60C U72A | 0.22 |
| U48C A56G C62U | 0.14 |
| U48C A56U U58A U60A U74A | 0.15 |
| U49C A64G U72C | 0.34 |
| U48C U54C U76C | 0.44 |
| U49C A56G U58C U69A A75G | 0.15 |
| U49A U54C U72A | 0.22 |
| U49A A64G U67A | 0.14 |
| U48A U60C A64G | 0.12 |
| A47G U54C C79A | 1.2 |
| U49A G52C U60A U72C | 0.22 |
| A47G U51C A65G U76C | 0.45 |
| A47G U58C U67A U72C | 0.43 |
| U48C G63A U69C | 0.21 |
| A47U U54C U74C | 0.91 |
| A47G U49A U66C | 0.29 |
| A47G U49A U66A | 0.17 |
| A47G U60A U78C | 0.39 |
